# Measurements as given in the supplement of paper PMC8728848.
# Some of the results follow.
# B1: DGL (Dioclea grandiflora), P08902 (protein)
# chain: ADTIVAVELDSYPNTDIGDPNYPHIGIDIKSIRSKSTARWNMQTGKVGTVHISYNSVAKRLSAVVSYSGSSSTTVSYDVDLNNVLPEWVRVGLSATTGLYKETNTILSWSFTSKLKTNSIADENSLHFSFHKFSQNPKDLILQGDAFTDSDGNLELTKVSSSGDPQGNSVGRALFYAPVHIWESSAVVASFDATFTFLIKSPDREPADGITFFIANTDTSIPSGSGGRLLGLFPDAN
# How the values were obtained:
# Experiment in all cases: glycan array binding signal (z-score within array); higher = stronger binding
# Conditions in all cases: glycan notation: IUPAC condensed, linker removed
# [1] = biological target: Fuc(a1-2)Gal
# How it was run: (§1)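 The binding signal is a Z-score computed within each array and averaged over linkers. Arrays of the same protein sequence at different concentrations or buffers were also averaged together. Data originate from 3228 arrays in the Consortium for Functional Glycomics database, kept only where the protein sequence was available.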
# [2] = biological target: Fuc(a1-2)Gal(b1-3)GalNAc
# How it was run: as §1
# [3] = biological target: Fuc(a1-2)Gal(b1-3)GalNAc(b1-3)Gal
# How it was run: as §1
# [4] = biological target: Fuc(a1-2)Gal(b1-3)GalNAc(b1-3)Gal(a1-4)Gal(b1-4)Glc
# How it was run: as §1
# [5] = biological target: Fuc(a1-2)Gal(b1-3)GalNAc(b1-4)[Neu5Ac(a2-3)]Gal(b1-4)Glc
# How it was run: as §1
# [6] = biological target: Fuc(a1-2)Gal(b1-3)GlcNAc
# How it was run: as §1
# [7] = biological target: Fuc(a1-2)Gal(b1-3)GlcNAc(b1-2)Man(a1-3)[Fuc(a1-2)Gal(b1-3)GlcNAc(b1-2)Man(a1-6)]Man(b1-4)GlcNAc(b1-4)GlcNAc
# How it was run: as §1
# [8] = biological target: Fuc(a1-2)Gal(b1-3)GlcNAc(b1-3)Gal(b1-4)Glc
# How it was run: as §1
# [9] = biological target: Fuc(a1-2)Gal(b1-3)GlcNAc(b1-3)[Gal(b1-4)[Fuc(a1-3)]GlcNAc(b1-6)]Gal(b1-4)Glc
# How it was run: as §1
# [10] = biological target: Fuc(a1-2)Gal(b1-3)[Fuc(a1-4)]GlcNAc
# How it was run: as §1
# [11] = biological target: Fuc(a1-2)Gal(b1-3)[Fuc(a1-4)]GlcNAc(b1-2)Man(a1-3)[Fuc(a1-2)Gal(b1-3)[Fuc(a1-4)]GlcNAc(b1-2)Man(a1-6)]Man(b1-4)GlcNAc(b1-4)GlcNAc
# How it was run: as §1
# [12] = biological target: Fuc(a1-2)Gal(b1-4)Glc
# How it was run: as §1
# [13] = biological target: Fuc(a1-2)Gal(b1-4)Glc6S
# How it was run: as §1
# [14] = biological target: Fuc(a1-2)Gal(b1-4)GlcNAc
# How it was run: as §1
# [15] = biological target: Fuc(a1-2)Gal(b1-4)GlcNAc(b1-2)Man(a1-3)[Fuc(a1-2)Gal(b1-4)GlcNAc(b1-2)Man(a1-6)]Man(b1-4)GlcNAc(b1-4)GlcNAc
# How it was run: as §1
# [16] = biological target: Fuc(a1-2)Gal(b1-4)GlcNAc(b1-3)Gal(b1-4)GlcNAc
# How it was run: as §1
# [17] = biological target: Fuc(a1-2)Gal(b1-4)GlcNAc(b1-3)Gal(b1-4)GlcNAc(b1-3)Gal(b1-4)GlcNAc
# How it was run: as §1
# [18] = biological target: Fuc(a1-2)Gal(b1-4)GlcNAc6S
# How it was run: as §1
# [19] = biological target: Fuc(a1-2)Gal(b1-4)[Fuc(a1-3)]GlcNAc
# How it was run: as §1
# [20] = biological target: Fuc(a1-2)Gal(b1-4)[Fuc(a1-3)]GlcNAc(b1-2)Man(a1-3)[Fuc(a1-2)Gal(b1-4)[Fuc(a1-3)]GlcNAc(b1-2)Man(a1-6)]Man(b1-4)GlcNAc(b1-4)GlcNAc
# How it was run: as §1
# [21] = biological target: Fuc(a1-2)Gal(b1-4)[Fuc(a1-3)]GlcNAc(b1-3)Gal(b1-4)[Fuc(a1-3)]GlcNAc
# How it was run: as §1
# [22] = biological target: Fuc(a1-2)Gal(b1-4)[Fuc(a1-3)]GlcNAc(b1-3)Gal(b1-4)[Fuc(a1-3)]GlcNAc(b1-3)Gal(b1-4)[Fuc(a1-3)]GlcNAc
# How it was run: as §1
# [23] = biological target: Fuc(a1-2)Gal6S(b1-4)Glc
# How it was run: as §1
# [24] = biological target: Fuc(a1-2)Gal6S(b1-4)Glc6S
# How it was run: as §1
# [25] = biological target: Fuc(a1-2)Gal6S(b1-4)GlcNAc
# How it was run: as §1
# [26] = biological target: Fuc(a1-2)[Gal(a1-3)]Gal
# How it was run: as §1
# [27] = biological target: Fuc(a1-2)[Gal(a1-3)]Gal(b1-3)GlcNAc
# How it was run: as §1
# [28] = biological target: Fuc(a1-2)[Gal(a1-3)]Gal(b1-3)GlcNAc(b1-2)Man(a1-3)[Fuc(a1-2)[Gal(a1-3)]Gal(b1-3)GlcNAc(b1-2)Man(a1-6)]Man(b1-4)GlcNAc(b1-4)GlcNAc
# How it was run: as §1
# [29] = biological target: Fuc(a1-2)[Gal(a1-3)]Gal(b1-4)Glc
# How it was run: as §1
# [30] = biological target: Fuc(a1-2)[Gal(a1-3)]Gal(b1-4)GlcNAc
# How it was run: as §1
binder,measurement,setting,value
B1,glycan array binding signal (z-score),[1],-0.163
same,glycan array binding signal (z-score),[2],-0.179
same,glycan array binding signal (z-score),[3],-0.166
same,glycan array binding signal (z-score),[4],-0.175
same,glycan array binding signal (z-score),[5],-0.179
same,glycan array binding signal (z-score),[6],-0.175
same,glycan array binding signal (z-score),[7],-0.167
same,glycan array binding signal (z-score),[8],-0.177
same,glycan array binding signal (z-score),[9],-0.181
same,glycan array binding signal (z-score),[10],-0.175
same,glycan array binding signal (z-score),[11],-0.169
same,glycan array binding signal (z-score),[12],-0.18
same,glycan array binding signal (z-score),[13],-0.172
same,glycan array binding signal (z-score),[14],-0.179
same,glycan array binding signal (z-score),[15],-0.185
same,glycan array binding signal (z-score),[16],-0.176
same,glycan array binding signal (z-score),[17],-0.179
same,glycan array binding signal (z-score),[18],-0.172
same,glycan array binding signal (z-score),[19],-0.176
same,glycan array binding signal (z-score),[20],-0.144
same,glycan array binding signal (z-score),[21],-0.182
same,glycan array binding signal (z-score),[22],-0.168
same,glycan array binding signal (z-score),[23],-0.158
same,glycan array binding signal (z-score),[24],-0.176
same,glycan array binding signal (z-score),[25],-0.173
same,glycan array binding signal (z-score),[26],-0.174
same,glycan array binding signal (z-score),[27],-0.18
same,glycan array binding signal (z-score),[28],-0.167
same,glycan array binding signal (z-score),[29],-0.177
same,glycan array binding signal (z-score),[30],-0.181
